# From PubChem BioAssay AID602310 (National Center for Advancing Translational Sciences (NCATS), 2012)
# “And” between values parts separate entries of the source, which are not always exact repeats. Equal values may be shown once. The campaign covered roughly 410,000 compounds. About 310 (0.076%) were called active. This list was built around the results that the source calls inconclusive (neither active nor inactive); the mix of calls is not that of the screen. The call rests on the fitted dose curve; in most records, active means well fitted curve in the direction sought with a large enough effect; inconclusive means small, poorly fitted or top-dose-only effect; inactive means flat fitted curve, though single readings scatter. Potencies of inconclusive entries are doubtful fits and often do not repeat.
# Biological target: DNA dC->dU-editing enzyme APOBEC-3G (Homo sapiens) (UniProt Q9HC16)
# Chain of UniProt Q9HC16 (Q9HC16 whole entry, looked up): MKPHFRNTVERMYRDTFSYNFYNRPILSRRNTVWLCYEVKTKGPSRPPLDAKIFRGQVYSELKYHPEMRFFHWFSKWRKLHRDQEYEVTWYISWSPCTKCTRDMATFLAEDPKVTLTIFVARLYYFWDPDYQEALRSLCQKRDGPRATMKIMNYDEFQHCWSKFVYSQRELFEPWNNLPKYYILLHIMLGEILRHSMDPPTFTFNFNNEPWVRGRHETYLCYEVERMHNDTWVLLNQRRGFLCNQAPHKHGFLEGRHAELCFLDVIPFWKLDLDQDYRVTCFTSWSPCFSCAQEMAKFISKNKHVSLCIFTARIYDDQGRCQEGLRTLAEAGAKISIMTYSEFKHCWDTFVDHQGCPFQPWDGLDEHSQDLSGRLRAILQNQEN
# Experiment: qHTS for Inhibitors of Vif-A3G Interactions: qHTS; further: nearly all actives have a fitted effect of over 60% in size
# Settings: HeLa A3G-eYFP + Vif (tagged APOBEC3G with the HIV-1 protein that degrades it), YFP fluorescence, overnight; series mostly up to 46.1 µM
# Procedure, shortened: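 HeLa cells stably expressing Vif and C-terminally eYFP-tagged A3G, seeded overnight at 37 deg C, then exposed to compound by pintool overnight at 37 deg C. Rise in yellow fluorescence (Ex 488/Em 500-530, Acumen) marks blocked Vif-driven A3G degradation.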
# Potency means the concentration at half of the fitted maximal effect; tags describe the fitted curve by direction and shape.
row,Compound,Potency
1,O=C1/C(=C/C=C/c2ccccc2)Oc2c1ccc(O)c2CN1CCN(CCO)CC1,"inconclusive: 25.1 µM [inhibitor, single point]"
2,Cn1c(=O)c([N+](=O)[O-])c(-n2cnc3ccccc32)c2ccccc21,"inconclusive: 35.5 µM [inhibitor, single point]"
3,O=C1NC(=O)/C(=C/c2ccccc2OCc2ccccc2)S1,inactive
4,COc1ccc(-n2nc(C(=O)N3CCN(c4cccc(C)c4C)CC3)c3c4ccccc4n(C)c3c2=O)cc1Cl,inactive
5,O=C(CCl)Nc1ccc(S(=O)(=O)NC2=NCCCCC2)cc1,"inconclusive: 15.8 µM [inhibitor, single point]"
6,O=C(/C=C/c1ccccc1)c1ccccc1,"inconclusive: 31.6 µM [inhibitor, single point]"
7,Cc1csc(NC(=O)NC2(C(F)(F)F)Oc3ccccc3O2)n1,"inconclusive: 22.4 µM [inhibitor, single point]"
8,O=C(Nc1ccc([N+](=O)[O-])cc1)Nc1ccc2c(c1)OCCO2,inactive
9,COc1ccc(Cc2c(-c3ccco3)nc3ccc(Br)cn23)c(C)c1,"inconclusive: 22.4 µM [inhibitor, single point]"
10,O=C1C=C(Nc2ccc(Cl)cc2)CC(c2ccco2)C1 (stereo not drawn),"inconclusive: 11.2 µM [inhibitor, partial curve]"
11,C/C(=N\Nc1nccnc1Cl)c1ccc(Cl)c(Cl)c1,inactive
12,COc1ccc(NC(=O)c2sc3nc(-c4cccnc4)ccc3c2N)cc1OC,"inconclusive: 3.98 µM [inhibitor, full curve, poor fit]"
13,Cc1cccc(/C=C(\C#N)c2nc3ccccc3c(=O)[nH]2)c1,inactive
14,Clc1ccccc1Cn1c(/C=C/c2ccco2)nc2ccccc21,active: 10 µM
15,O=C(CSc1nc(-c2ccccc2)c(-c2ccccc2)[nH]1)NCCN1C(=O)CSC1=O,"inconclusive: 2.82 µM [inhibitor, partial curve, poor fit]"
16,O=C(Nc1ccccc1)C1=C(c2ccccc2)S(=O)(=O)CCS1(=O)=O,"inconclusive: 8.91 µM [inhibitor, partial curve, poor fit]"
17,Cc1c(CC(=O)NCc2ccc(F)cc2)c(=O)oc2cc(O)c(Cl)cc12,"inconclusive: 14.1 µM [inhibitor, single point]"
18,CCCn1c(CN2CCN(C(=O)OCC)CC2)nc2cc(NC(=O)CC)ccc21,"inconclusive: 8.91 µM [inhibitor, partial curve]"
19,CCOc1ccc(NC(=O)Nc2ccc(Br)cn2)cc1,inactive
20,COc1cc(NC(=O)c2csc(N)n2)cc(C(=O)Nc2cccc(C(F)(F)F)c2)c1,"inconclusive: 2.51 µM [inhibitor, partial curve, poor fit] and inconclusive: 2.82 µM [inhibitor, partial curve, poor fit]"
21,Cc1ccc(NC(=O)CSc2nc(O)cc(=O)n2C)cc1,inactive
22,CC(=O)c1ccc(N2C(=O)C3C(C2=O)C(C(=O)c2ccc(Cl)cc2)N2CCCC32)cc1 (stereo not drawn),"inconclusive: 35.5 µM [inhibitor, single point]"

row,Compound,Potency
1,COc1cc(NC(=O)CCCOc2cc(=O)n(C)c3ccccc23)cc(OC)c1OC,inactive
2,O=C(NCCC1CCCCN1S(=O)(=O)c1cccs1)C(=O)NCc1ccccc1 (stereo not drawn),"inconclusive: 14.1 µM [inhibitor, partial curve, poor fit]"
3,COc1ccc(C(C)(O)c2nc(-c3cccc(O)c3)cs2)cc1 (stereo not drawn),"inconclusive: 5.01 µM [inhibitor, full curve, poor fit]"
4,N=C1C(c2nc3ccccc3s2)=C(O)CN1NC(=O)c1ccc([N+](=O)[O-])cc1,"inconclusive: 35.5 µM [inhibitor, single point]"
5,Cc1ccc(CNC(=O)Cc2ccc(-n3cccc3)cc2)cc1,"inconclusive: 1.58 µM [inhibitor, full curve, poor fit]"
6,Cc1cc(C(=O)NCc2ccccc2Cl)n(-c2ccccc2)n1,inactive
7,CCOC(=O)C1=C(O)/C(=C/c2cn(CC(=O)NCC3CCCO3)c3ccccc23)SC1=Nc1ccc(C)cc1 (stereo not drawn),"inconclusive: 3.16 µM [inhibitor, partial curve, poor fit]"
8,CCCCN1CC(c2nc3ccccc3n2CCCCOc2cccc(C)c2C)CC1=O (stereo not drawn),inactive
9,Nc1nc2ccc(S(=O)(=O)N3CCCCC3)cc2s1,inactive
10,O=C(/C(=C/c1ccc(Cl)cc1)c1nc2ccccc2[nH]1)c1cccs1,"inconclusive: 3.55 µM [inhibitor, full curve, poor fit]"
11,CCCC(=O)Nc1ccc(C(=O)N/N=C/c2ccc([N+](=O)[O-])o2)cc1,"inconclusive: 12.6 µM [inhibitor, partial curve]"
12,O=C(OCc1cnc(Cl)s1)c1c(F)cccc1F,inactive
13,CCCCN1C(=O)/C(=C/C=C2\SCCN2C)SC1=S,"inconclusive: 3.16 µM [inhibitor, partial curve, poor fit]"
14,Cc1cc(C)c(NC(=O)CSc2nnc(CN3CCOCC3)n2C)c(C)c1,inactive
15,NC(=O)c1ccc(Cn2c(C(=O)c3cc(Cl)c(N)c(Cl)c3)c3ccccc3[n+]2[O-])cc1,"inconclusive: 6.31 µM [inhibitor, partial curve]"
16,Cc1ccc(S(=O)(=O)N(CC(=O)Nc2cccnc2)c2cccc([N+](=O)[O-])c2)cc1,"inconclusive: 17.8 µM [inhibitor, partial curve, poor fit]"
17,Cc1cccc(C(=O)Nc2cccc(NC(=O)c3ccccc3)c2)c1,inactive
18,Cc1ccc(C(=O)/C=C/c2ccc(F)cc2)o1,"inconclusive: 22.4 µM [inhibitor, single point]"
19,C=C1CC2C(CCC3(C)C2CCC3(O)C(C)=O)C2(C)CCC(=O)C=C12 (stereo not drawn),"inconclusive: 22.4 µM [inhibitor, single point]"
20,Cc1ccc(N2C(=O)[C@@H]3[C@H](C2=O)C2CCCN2[C@@H]3C(=O)c2ccccc2)cc1 (stereo partly drawn),"inconclusive: 31.6 µM [inhibitor, single point]"
21,Cc1nc(Nc2cnc(/C=C/c3cc(C(=O)Nc4cccc(C(F)(F)F)c4)ccc3C)cn2)cc(N2CCNCC2)n1,"inconclusive: 35.5 µM [inhibitor, single point]"
